Measurements from PubChem BioAssay AID2675 (National Center for Advancing Translational Sciences (NCATS), 2010).
In all, about 280,000 compounds went through this assay and about 100 (0.036%) were called active. Inconclusive means that the source gave no clear call. Such entries were picked first, then a sample of the others. Calls come from the whole dose curve; as a rule, active = well fitted inhibition curve with a large enough effect in the signal ratio, with a control signal flat (not every such curve was filed as active); inconclusive = small, poorly fitted or top-dose-only effect, or effect the other way, or a change in a side signal; inactive = no such curve, though single readings can be large or run the other way; the % refers to the signal ratio. Potencies of inconclusive entries are doubtful fits and often do not repeat. “Side channel” marks fits to a control or component signal instead of the main read-out.

target: Muscleblind-like protein 1 (Homo sapiens) (UniProt Q9NR56); assay: qHTS Assay for Inhibitors of MBNL1-poly(CUG) RNA binding; conditions: TR-FRET MBNL1-His/biotin-(CUG)12 binding, 665/545 ratio; activity change, negative = inhibition: at 57.5 µM (top of the series)
Outline: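 TR-FRET between His-tagged MBNL1 and biotin-(CUG)12 RNA, detected with Tb anti-His antibody (0.055 ng/ul) and streptavidin-XL665 (5 nM), 60 min at room temperature. Compounds titrated 92 nM to 58 uM; 665/545 nm ratio normalized to buffer and complex controls.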
% is set by controls: 0 for no effect and ±100 for the full control effect; potency is the fitted concentration of half-maximal effect; tags give direction and shape of the fitted curve or compound fluorescence and quenching.

Sequence of UniProt Q9NR56 (Q9NR56 whole entry, looked up): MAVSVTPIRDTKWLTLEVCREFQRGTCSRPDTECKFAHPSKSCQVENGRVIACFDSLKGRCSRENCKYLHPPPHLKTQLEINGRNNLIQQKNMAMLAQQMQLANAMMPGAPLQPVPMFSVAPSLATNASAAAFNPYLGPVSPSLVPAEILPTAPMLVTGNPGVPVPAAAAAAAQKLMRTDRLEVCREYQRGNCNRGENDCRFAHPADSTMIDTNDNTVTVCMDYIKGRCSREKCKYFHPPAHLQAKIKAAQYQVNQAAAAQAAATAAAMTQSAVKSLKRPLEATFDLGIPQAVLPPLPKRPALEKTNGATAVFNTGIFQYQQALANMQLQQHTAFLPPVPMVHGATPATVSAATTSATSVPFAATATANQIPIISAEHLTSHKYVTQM

Row | Compound | Potency | activity change, negative = inhibition
1 | O=C(c1cccc([N+](=O)[O-])c1)N1CC2C3C=CC(C3)C2C1 (stereo not given) | inconclusive: 22.4 µM [quencher, side channel, single point] | –
2 | COc1ccc2c(=O)cc(C(=O)O)oc2c1 | – | inactive: -6.55%
3 | Cc1ccc(C(=O)O/N=C\c2ccc(N3CCCCC3)c([N+](=O)[O-])c2)cc1 | – | inactive: -6.92%
4 | COc1ccc(Cl)cc1-c1n[nH]c(=S)n1C1CCCCC1 | – | inactive: 8.7%
5 | Cc1nc2ncnn2c(C)c1Cc1ccc(Cl)cc1F | – | inactive: 0.0704%
6 | N#C/C(=C\c1c(N2CCC(C(N)=O)CC2)nc2ccccn2c1=O)C(=O)NCc1ccco1 | – | inconclusive: 23.8% [phenotype inactive]
7 | CC1CCCC(C)N1/N=C/c1ccc([N+](=O)[O-])cc1 (stereo not given) | inconclusive: 15.8 µM [quencher, side channel, partial curve] | –
8 | CCCCN(CC)C(=O)C1CCCN(S(=O)(=O)c2cccc3nsnc23)C1 (stereo not given) | inconclusive: 14.1 µM [quencher, partial curve] | –
9 | COC(=O)c1ccc(NC(=S)N2CCC(C(N)=O)CC2)cc1 | inconclusive: 0.398 µM [fluorescent, side channel, partial curve] | –
10 | Cc1c(-n2c(SCC(=O)C(C)(C)C)nc3ccccc3c2=O)c(=O)n(-c2ccccc2)n1C | – | inactive: -4.86%
11 | COCCCn1nnnc1SCC(=O)Nc1nc(C)c(C)s1 | inconclusive: 0.562 µM [quencher, side channel, single point] | –
12 | O=C(Nc1nc(-c2ccccc2)cs1)C1CCCCN1S(=O)(=O)c1ccccc1 (stereo not given) | – | inactive: 4.69%
13 | COC(=O)c1ccc(OC(=O)/C=C/c2ccco2)cc1 | inconclusive: 14.1 µM [quencher, side channel, partial curve] | –
14 | Cc1cc(C)nc(NS(=O)(=O)c2ccc(NC(=O)c3ccc(S(=O)(=O)N4CC(C)OC(C)C4)cc3)cc2)n1 (stereo not given) | inconclusive: 126 µM [inhibitor, partial curve, poor fit] | –
15 | COc1ccc(C)cc1Nc1n[n+](-c2ccccc2)c(-c2c(Cl)cccc2Cl)s1 | – | inactive: 13%
16 | O=S(=O)(NNC(=S)Nc1ccc(S(=O)(=O)Nc2ncccn2)cc1)c1ccc(Br)cc1 | – | inactive: 4.21%
17 | Cc1ccc(C(=O)N/C(=C\c2cccs2)C(=O)NCCCn2ccnc2)cc1 | – | inactive: 21.2%
18 | COc1ccc(OC)c(-c2csc(NC(=O)c3ccc(OCC4CCCO4)cc3)n2)c1 (stereo not given) | inconclusive: 39.8 µM [fluorescent, side channel, single point] | –
19 | Cc1ccc(NC(=O)c2cc([N+](=O)[O-])ccc2NCc2cccnc2)cc1Cl | – | inactive: 16.2%
20 | NC(=O)COc1ccccc1/C=C1/SC(=O)N(CC(=O)N2CCc3ccccc3C2)C1=O | inconclusive: 12.6 µM [quencher, side channel, partial curve] | –
21 | O=C1CCC(NC(=O)c2ccccc2)C(=O)N1 (stereo not given) | inconclusive: 39.8 µM [fluorescent, side channel, single point] | –
22 | COc1ccc(CCNC(=O)CCS(=O)(=O)c2cccc3nsnc23)cc1OC | inconclusive: 14.1 µM [quencher, side channel, partial curve] | –

Row | Compound | Potency | activity change, negative = inhibition
23 | COc1cc(NC(=O)CSc2nnc3ccc(-c4ccncc4)nn23)cc(OC)c1 | inconclusive: 15.8 µM [quencher, side channel, partial curve] | –
24 | Nc1cc(Cl)nc(N/N=C/c2ccccc2[N+](=O)[O-])n1 | inconclusive: 15.8 µM [quencher, side channel, partial curve] | –
25 | O=C(Nc1ccc(F)cc1)N1CCCN(c2nccc(C(F)(F)F)n2)CC1 | – | inactive: -9.15%
26 | Cn1c(SCC2CCCO2)nnc1-c1ccc([N+](=O)[O-])cc1 (stereo not given) | inconclusive: 12.6 µM [quencher, side channel, partial curve] | –
27 | Cc1nnc2n1N=CC=C(c1ccccc1)S2 | inconclusive: 8.91 µM [quencher, side channel, partial curve] | –
28 | COc1ccc(/C=C(/NC(=O)c2ccccc2)C(=O)N/N=C/c2cccs2)cc1OC | inconclusive: 14.1 µM [quencher, side channel, partial curve] | –
29 | Cc1ccc(C(=O)NCCc2nnc3ccc(SCC(=O)Nc4c(C)cc(C)cc4C)nn23)cc1 | inconclusive: 0.126 µM [fluorescent, side channel, partial curve, poor fit] | –
30 | COCCCNC(=S)Nc1ccc(C)cc1 | – | inactive: -6.68%
31 | CC(C)(C)Nc1cccccc1=O | inconclusive: 28.2 µM [quencher, side channel, single point] | –
32 | C=CCN1C=CC=C/C1=C1\SC(=S)N(C)C1=O | inconclusive: 15.8 µM [quencher, partial curve] | –
33 | O=[N+]([O-])c1ccccc1NC(=S)N/N=C/c1ccc(O)c(O)c1 | inconclusive: 28.2 µM [quencher, side channel, partial curve] | –
34 | COc1ccc(O)c(C(=O)c2cc(C#N)c(=O)n(-c3ccc(Cl)cc3)c2)c1 | inconclusive: 6.31 µM [quencher, side channel, partial curve] | –
35 | COc1ccc(OCC(O)CN(C)C(=O)/C=C/c2cccc([N+](=O)[O-])c2)cc1 (stereo not given) | inconclusive: 25.1 µM [quencher, side channel, partial curve] | –
36 | O=C1C=C(O)c2cccc(O)c2C1=O | inconclusive: 31.6 µM [quencher, single point] | –
37 | Cc1cc2ccccc2n1CCNC(=O)c1ccccc1 | – | inactive: 43.5%
38 | O=C(O)c1ccc(/C=C2\SC(=S)N(NC(=O)c3ccccc3[N+](=O)[O-])C2=O)cc1 | inconclusive: 22.4 µM [quencher, side channel, partial curve] | –
39 | O=C(NC(=S)N1CCN(c2ccc(Cl)cc2[N+](=O)[O-])CC1)c1cccs1 | inconclusive: 31.6 µM [quencher, side channel, single point] | –
40 | Cc1cc(=O)oc2cc(NC(=O)c3cc([N+](=O)[O-])ccc3N3CCOCC3)ccc12 | inconclusive: 11.2 µM [quencher, side channel, partial curve] | –
41 | CCCC(=O)Nc1nc2nc(-c3ccccc3)cc(-c3ccccc3)n2n1 | – | inactive: -10.2%
42 | CC(c1ccco1)N(C(=O)C12CC3CC(CC(C)(C3)C1)C2)c1ccccn1 (stereo not given) | – | inactive: 3.49%
43 | COc1ccc(C(C)NC(=O)c2ccc([N+](=O)[O-])cc2)cc1OC (stereo not given) | inconclusive: 2 µM [quencher, side channel, full curve, poor fit] | –
44 | O=C(c1ccco1)N1CCN(c2c([N+](=O)[O-])nn(-c3cccc(Cl)c3)[n+]2[O-])CC1 | inconclusive: 12.6 µM [quencher, side channel, partial curve] | –

Row | Compound | Potency | activity change, negative = inhibition
45 | O=C(CNCc1ccccn1)Nc1ccc([N+](=O)[O-])cc1C(=O)Nc1ccccc1F | inconclusive: 15.8 µM [quencher, side channel, partial curve] | –
46 | CN(C)C=C1C(=O)c2ccccc2C1=O | inconclusive: 22.4 µM [quencher, side channel, single point] | –
47 | Cc1ccccc1Cn1c(Cc2ccccc2)nc2ccccc21 | – | inactive: -5.76%
48 | CCSc1cnn(-c2ccccc2)c(=O)c1SCC | inconclusive: 31.6 µM [quencher, side channel, single point] | –
49 | CC(CC(=O)Nc1cccc(Cl)c1)c1ccccc1 (stereo not given) | – | inactive: 14.1%
50 | CCOC(=O)CC(=O)CSCC(=O)Nc1ccc(C)cc1 | – | inactive: -0.324%
51 | NC(=O)C1CCN(C(=O)c2ccc([N+](=O)[O-])cc2NC(=O)c2cccs2)CC1 | inconclusive: 11.2 µM [quencher, side channel, partial curve] | –
52 | COc1ccc(/C=C2\SC(=O)N(CC(=O)NC3C=CS(=O)(=O)C3)C2=O)cc1 (stereo not given) | inconclusive: 2 µM [quencher, side channel, full curve, poor fit] | –
53 | O=[N+]([O-])c1cccc(S(=O)(=O)c2ccc(NCCOCCO)c([N+](=O)[O-])c2)c1 | inconclusive: 15.8 µM [quencher, side channel, partial curve] | –
54 | Cc1cc(Nc2cccc(Cl)c2)nc(NCc2ccccc2)n1 | inconclusive: 39.8 µM [quencher, side channel, single point] | –
55 | CCC(C(=O)Nc1nc(C)c(C)s1)c1ccccc1 (stereo not given) | – | inactive: 3.16%
56 | CC1=C([N+](=O)[O-])C(c2ccc(Cl)cc2)NC(=O)N1C (stereo not given) | inconclusive: 15.8 µM [quencher, side channel, partial curve] | –
57 | Cc1c(C)c2ccc(OCC(=O)Nc3ccc(N4CCC(C)CC4)cc3)cc2oc1=O | – | inactive: 6.69%
58 | CN(C)NC(=O)c1ccc([N+](=O)[O-])s1 | inconclusive: 8.91 µM [quencher, side channel, partial curve] | –
59 | O=c1c2nccnc2[nH]c(=S)n1Cc1ccccc1 | inconclusive: 22.4 µM [quencher, side channel, single point] | –
60 | Cc1cnc(-c2nnc(N(C)C(=O)C3CCCO3)s2)cn1 (stereo not given) | – | inactive: 15.4%
61 | Cc1ccccc1NC(=S)N(Cc1cccs1)C1CCCC1 | – | inactive: -0.799%
62 | COc1cccc(NC(=O)Nc2cc(C(=O)O)ccc2C)c1 | inconclusive: 79.4 µM [inhibitor, single point] | –
63 | N#C/C(=C\c1c[nH]c2ccccc12)C(N)=O | inconclusive: 12.6 µM [quencher, side channel, partial curve] | –
64 | O=C(CCC(=O)N(CC(=O)NC1CCCCC1)Cc1ccccc1)Nc1ccccn1 | inconclusive: 8.91 µM [quencher, side channel, full curve] | –
65 | COc1ccc2cc(OC)c(C(=O)N3CCOCC3)cc2c1 | inconclusive: 39.8 µM [fluorescent, side channel, single point] | –
